# This is one part of the list. Read counts after selection give these values, which scatter widely. Scores sum up all selected molecules that hold the word; the word was not tested alone.
# Tests used:
# Assay in all cases: 6-mer SELEX enrichment z-score vs GST control; IMP3 is the RNA-binding protein IGF2BP3; higher = more enriched by binding
# [1] = tested on: IMP3 KH1-4; details: construct: KH1-4 (164-579); SELEX round: R4
# Method: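 SELEX-seq with GST-tagged IMP3 KH1-4 (Pro164-Lys579) and an N40 RNA pool, round 4. 6-mer z-score of sequence-tag enrichment normalised to the corresponding GST SELEX round; RNA k-mers written as DNA (T for U).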
# [2] = tested on: IMP3 RRM1-2; details: construct: RRM1-2 (1-163); SELEX round: R2
# Chain of IMP3 RRM1-2 (chain, as listed by the source): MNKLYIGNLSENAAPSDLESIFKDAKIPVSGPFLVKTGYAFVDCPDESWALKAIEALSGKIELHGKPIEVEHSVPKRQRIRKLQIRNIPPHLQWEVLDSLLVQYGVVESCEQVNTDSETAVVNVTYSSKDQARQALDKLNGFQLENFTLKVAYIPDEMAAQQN
# Method: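 SELEX-seq with GST-tagged IMP3 RRM1-2 (Met1-Asn163) and an N40 RNA pool, round 2. 6-mer enrichment z-score normalised to GST SELEX. RNA written as DNA (T = U).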
# [3] = target: IMP3 full-length (UniProt O00425); details: construct: FL IMP3 (1-579); SELEX round: R4
# Chain of UniProt O00425 (O00425 whole entry): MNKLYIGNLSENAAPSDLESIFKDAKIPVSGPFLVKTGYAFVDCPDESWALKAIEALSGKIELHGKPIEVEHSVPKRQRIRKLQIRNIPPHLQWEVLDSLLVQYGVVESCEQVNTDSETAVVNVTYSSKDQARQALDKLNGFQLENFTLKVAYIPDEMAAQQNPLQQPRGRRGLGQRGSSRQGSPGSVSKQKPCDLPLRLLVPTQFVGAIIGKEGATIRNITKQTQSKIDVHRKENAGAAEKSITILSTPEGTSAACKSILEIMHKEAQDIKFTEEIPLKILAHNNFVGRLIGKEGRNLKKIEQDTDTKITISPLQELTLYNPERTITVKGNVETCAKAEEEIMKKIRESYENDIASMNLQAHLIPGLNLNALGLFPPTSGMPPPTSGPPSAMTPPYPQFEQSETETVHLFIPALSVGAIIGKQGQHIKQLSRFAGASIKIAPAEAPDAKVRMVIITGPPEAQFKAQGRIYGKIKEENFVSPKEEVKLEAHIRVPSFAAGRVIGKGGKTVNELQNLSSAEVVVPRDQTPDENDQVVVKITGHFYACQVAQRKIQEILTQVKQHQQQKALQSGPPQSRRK
# Method: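 SELEX-seq with GST-tagged full-length IMP3 and an N40 RNA pool, round 4. Each 6-mer is scored as an enrichment z-score of sequence tags containing it, normalised to the matching GST SELEX round. RNA written as DNA (T = U).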
# [4] = tested on: IMP3 KH1-2; details: construct: KH1-2 (164-376); SELEX round: R4
# Chain of IMP3 KH1-2 (chain, as listed by the source): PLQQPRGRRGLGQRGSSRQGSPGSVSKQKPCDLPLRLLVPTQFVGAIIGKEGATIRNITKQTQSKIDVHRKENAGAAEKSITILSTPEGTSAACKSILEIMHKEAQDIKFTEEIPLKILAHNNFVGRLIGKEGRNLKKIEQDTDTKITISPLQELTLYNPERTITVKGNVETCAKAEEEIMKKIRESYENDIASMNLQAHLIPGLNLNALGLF
# Method: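 SELEX-seq with GST-tagged IMP3 KH1-2 (Pro164-Phe376) and an N40 RNA pool, round 4 (stringent 300/600 mM KCl washes). 6-mer z-score of sequence-tag enrichment normalised to the corresponding GST SELEX round; RNA k-mers written as DNA (T for U).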
# [5] = tested on: IMP3 KH3-4; details: construct: KH3-4 (377-579); SELEX round: R4
# Chain of IMP3 KH3-4 (chain, as listed by the source): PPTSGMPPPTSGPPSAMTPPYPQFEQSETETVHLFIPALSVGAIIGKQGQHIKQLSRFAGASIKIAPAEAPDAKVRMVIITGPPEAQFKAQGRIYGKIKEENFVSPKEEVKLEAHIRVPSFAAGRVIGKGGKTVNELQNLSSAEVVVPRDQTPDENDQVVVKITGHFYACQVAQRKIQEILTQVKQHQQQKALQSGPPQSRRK
# Method: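 SELEX-seq with GST-tagged IMP3 KH3-4 (Pro377-Lys579) and an N40 RNA pool, round 4. 6-mer z-score of sequence-tag enrichment normalised to the corresponding GST SELEX round; RNA k-mers written as DNA (T for U).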
# Chain of IMP3 KH1-4 (chain, as listed by the source): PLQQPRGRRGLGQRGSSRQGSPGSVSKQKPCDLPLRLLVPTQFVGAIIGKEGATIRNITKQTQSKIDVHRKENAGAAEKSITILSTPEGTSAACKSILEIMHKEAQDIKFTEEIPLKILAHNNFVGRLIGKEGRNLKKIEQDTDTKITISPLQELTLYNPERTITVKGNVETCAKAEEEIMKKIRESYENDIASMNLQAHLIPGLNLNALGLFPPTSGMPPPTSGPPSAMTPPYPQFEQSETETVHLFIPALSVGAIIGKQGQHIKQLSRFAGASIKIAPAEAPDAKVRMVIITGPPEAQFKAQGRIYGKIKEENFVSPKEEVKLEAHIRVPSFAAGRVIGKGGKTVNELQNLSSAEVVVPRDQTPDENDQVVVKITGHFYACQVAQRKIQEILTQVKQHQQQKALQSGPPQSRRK
Sequence,6-mer SELEX enrichment z-score [1],6-mer SELEX enrichment z-score [2],6-mer SELEX enrichment z-score [3],6-mer SELEX enrichment z-score [4],6-mer SELEX enrichment z-score [5]
TGGCGA,-0.205,-0.037,0.163,-0.201,0.048
TTCCAG,0.502,0.146,-0.038,0.258,0.177
ACCTCT,-0.563,-0.123,-0.684,-0.471,-0.761
TCAAGC,-1.02,0.535,-0.135,-0.994,-1
TTGGGG,0.357,0.423,0.307,0.489,0.631
TCGACC,-1.08,-0.097,-0.508,-1.12,-1.35
CAGAAT,0.797,-0.012,0.46,0.726,0.916
TCGTAA,-0.384,-0.303,-0.416,-0.422,-0.247
GCGACT,-0.675,-0.211,-0.13,-0.551,-0.586
TGGCGC,-0.157,0.375,0.476,-0.065,-0.033
TACTTG,-0.267,0.137,-0.296,-0.28,-0.149
ATCATT,1.82,2.43,2.28,1.67,1.78
ACTTCA,0.73,1.3,0.762,1.04,0.363
GATCGT,-0.685,-0.113,-0.363,-0.657,-0.526
TTACTA,1.05,0.24,0.012,1.01,1.33
CTGTAT,0.481,0.128,0.079,0.448,0.517
TATATA,1.73,0.139,0.503,1.69,2.53
CCGCCA,0.622,-0.265,0.646,0.859,-0.314
CATCCT,0.467,0.41,0.443,0.321,-0.199
TGATCA,0.929,0.686,0.665,0.625,0.73
GCACGT,0.254,0.304,0.744,0.1,-0.021
GATGGG,0.868,-0.019,0.29,0.896,1
TTAACG,0.184,-0.482,-0.566,0.023,0.506
TACTGG,0.126,0.182,0.014,0.071,0.121
CGTGGC,-0.415,-0.077,0.127,-0.337,-0.379
CTCTGA,-0.429,-0.221,-0.348,-0.324,-0.479
CTTACA,1.07,0.636,0.571,1.3,0.777
TGGACA,0.635,-0.319,0.34,0.354,0.284

Sequence,6-mer SELEX enrichment z-score [1],6-mer SELEX enrichment z-score [2],6-mer SELEX enrichment z-score [3],6-mer SELEX enrichment z-score [4],6-mer SELEX enrichment z-score [5]
CTTTTG,0.098,0.25,-0.098,0.094,0.194
AGAGGT,0.301,-0.136,0.265,0.225,0.448
TTTACG,0.47,-0.115,0.002,0.358,0.637
CGCAGT,-0.33,0.203,0.115,-0.3,-0.403
AGAACG,-0.868,-1.32,-0.892,-0.898,-0.63
AACAAG,-0.165,-0.243,-0.187,-0.248,0.223
GAGCGC,-4.78,-0.412,-2.62,-4.44,-4.31
GCGGAG,-0.445,-0.302,0.107,-0.201,-0.209
AGTCTG,-0.056,0.2,0.101,-0.07,-0.103
TGTTAT,0.435,0.284,-0.006,0.261,0.469
AAACCC,-3.24,-2.14,-3.46,-2.96,-3.87
ACTATA,2.06,-0.117,0.186,1.98,2.28
ATATTG,1.3,0.025,0.284,0.943,1.52
TGGATG,0.785,-0.115,0.069,0.509,0.72
GATGGC,0.829,-0.1,0.513,0.703,0.99
ACAAGT,0.182,0.384,0.189,-0.063,0.119
CCCAGA,-1.81,-1.37,-1.57,-1.75,-2.15
CGGTCC,0.069,0,0.414,-0.024,-0.403
CGTTGG,-0.389,0.29,0.038,-0.326,-0.29
TACGAT,0.503,-0.386,-0.203,0.42,0.498
TGCTTA,0.241,0.16,-0.106,0.284,0.327
TCTGGC,-0.059,0.404,0.378,-0.029,-0.016
CGCTCC,0.064,-0.111,0.14,0.232,-0.488
ATCCCC,0.016,-0.814,-0.612,0.012,-1.2
TATTAA,1.46,-0.202,-0.031,1.22,2.42
ACCATG,0.139,0.618,0.037,-0.006,-0.222
GGTAGT,-0.141,0.407,0.054,-0.085,0.086
